Results as given in PubChem BioAssay AID485344 (National Center for Advancing Translational Sciences (NCATS), 2010).
The campaign covered roughly 340,000 compounds. About 6,900 (2%) were called active. Rule as the data show it: active = inhibition above about 30%; inactive = below that, where a call was filed. This is a selection; strong and weak results do not stand in their true shares. Entries without a call were filed so in the source.

What follows are compounds tested against D(2) dopamine receptor (Homo sapiens) (UniProt P14416) (assay: HTS Assay for Allosteric Antagonists of the Human D2 Dopamine Receptor: Primary Screen for Antagonists). Conditions: HEK293 TREx D2 cells, calcium flux, dopamine EC80; at 10 µM; stronger effect = higher value.
Method in brief: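 Measurement of antagonist activity uses fluorescent calcium dye in inducible HEK293 T-REx D2 cells: 10 s baseline, compound addition with 180 s read, EC80 dopamine addition with a further 180 s read.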
Also: 0% is about no effect.

UniProt P14416, sequence (P14416 whole entry, looked up): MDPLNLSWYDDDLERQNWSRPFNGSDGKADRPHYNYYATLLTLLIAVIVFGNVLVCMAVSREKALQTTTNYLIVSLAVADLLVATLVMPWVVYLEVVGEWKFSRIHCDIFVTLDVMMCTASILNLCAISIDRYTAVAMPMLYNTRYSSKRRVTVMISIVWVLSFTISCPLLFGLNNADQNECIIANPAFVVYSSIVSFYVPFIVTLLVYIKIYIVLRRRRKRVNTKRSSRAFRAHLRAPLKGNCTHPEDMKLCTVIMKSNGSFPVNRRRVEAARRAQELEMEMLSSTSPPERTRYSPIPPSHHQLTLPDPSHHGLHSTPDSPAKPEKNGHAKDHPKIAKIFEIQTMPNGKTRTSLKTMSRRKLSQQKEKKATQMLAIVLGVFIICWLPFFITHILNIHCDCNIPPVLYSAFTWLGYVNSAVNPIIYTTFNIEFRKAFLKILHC

SMILES	inhibition
Cc1ccc(NC(=O)CSc2nnc(-c3cc4occc4n3C)n2-c2ccccc2C)c(C)c1	-3.09%
COc1ccc(N2CCN(CCCNC(=O)c3nnc(Cc4ccccc4Cl)o3)CC2)cc1	6.34%
CCC(=O)c1ccccc1OCCCN1CCC(Cc2ccccc2)CC1	active: 97.5%
CCS(=O)(=O)N1CC(=O)N(c2cc(C)cc(C)c2)C(C)(C(=O)NC2CCCCC2)C1 (centres undefined)	-7.15%
Cc1cc(C)n2c(Nc3ccc4c(c3)OCCO4)c(-c3ccccc3)nc2n1	4.71%
COc1ccc(/C=C/C(=O)Nc2cc(-c3nc4ccccc4o3)ccc2OC)cc1	-0.893%
CC(=O)c1ccc(NC(=O)CSc2nnc(-c3ccncc3)n2-c2ccccc2)cc1	-0.694%
CCOc1cc(/C=N\NC(=O)OC(C)(C)C)ccc1OC(=O)c1ccco1	active: 31.3%
Cc1ccc(S(=O)(=O)c2[nH]c(-c3ccccc3)nc2SC(C)C(=O)O)cc1 (centres undefined)	-4.81%
O=C(c1ccccc1)N1CCC(c2nc3ccccc3o2)CC1	1.06%
CN1C(=O)Cc2cc(S(=O)(=O)CCC(=O)Nc3ccc(Cl)cc3)ccc21	15.7%
COc1ccc(CCNC(=O)c2cnn(-c3cccc(C)c3)c2C2CCNCC2)cc1OC	3.87%
CC(=O)c1ccc(NC(=O)c2cc3c([nH]c2=O)CC(c2ccccc2)CC3=O)cc1 (centres undefined)	18%
COc1ccc(OC)c(CNS(=O)(=O)c2cc(-c3onc(C)c3C)ccc2C)c1	4.77%
Cc1cc(F)ccc1NC(=O)CCS(=O)(=O)c1cc2c3c(c1)CCN3C(=O)CC2	1.13%
CCCCc1nn2c(=O)cc(COC(=O)c3cccc(NC(=O)c4cccs4)c3)nc2s1	13.1%
CC(=O)Nc1ccc(NC(=O)c2csnn2)cc1	10%
CCOC(=O)C1CCN(Cc2ccc(OCc3ccccc3)cc2)CC1	active: 59.2%
COCCN1C(=O)N(c2cccc(OC)c2)C(=O)C1CC(=O)Nc1ccccc1 (centres undefined)	16.5%
COc1cc2ccccc2cc1C(=O)N1CCN(c2nc3c(F)cccc3s2)CC1	-4.55%
O=C(NCc1ccc(Cl)cc1)C(=O)NCC(c1ccc2c(c1)OCO2)N1CCOCC1 (centres undefined)	-2.8%
O=C(NCCO)C(=O)NCC(c1ccc2c(c1)OCO2)N1CCOCC1 (centres undefined)	-5.6%
Cc1ccc(-c2nc(CS(=O)(=O)CC(=O)NC(C)CCc3ccccc3)c(C)o2)cc1 (centres undefined)	4.91%
COc1ccc(/C=C/c2nc(C#N)c(N3CCC(C(N)=O)CC3)o2)cc1OC	-13.4%
Cc1c(NC(=O)Nc2cccc(C(F)(F)F)c2)sc2nc3n(c(=O)c12)CCC(C)CC3 (centres undefined)	5.74%

SMILES	inhibition
COc1ccc(C(CC(=O)Nc2ccccn2)N2Cc3ccccc3C2=O)cc1OC (centres undefined)	6.94%
O=C(CCS(=O)(=O)c1ccccc1)N(Cc1cccnc1)c1nc2c(F)cccc2s1	-16.2%
CCc1ccccc1NC(=O)Cn1nnc(C(=O)NCc2ccco2)c1N	4.85%
CC1CC(C)(C)NC(=S)N1CCCC(=O)NCc1ccccc1 (centres undefined)	active: 36.7%
CCOC(=O)c1nnc2c(-c3ccc(Cl)cc3)c(C)nn2c1N	19.7%
CC(NC(=O)CCc1cn(Cc2ccccc2Cl)c2ccccc12)c1ccccc1 (centres undefined)	-10.6%
O=C(NCCc1ccccc1)c1ccc(CSc2nc3cccnc3n2Cc2ccccc2)cc1	-6.62%
CC(C)Cc1nn2cc(-c3cccc(Br)c3)nc2s1	0.806%
CCOc1ccc(N2CC(c3nc4ccccc4n3CCOc3ccc(OC)cc3)CC2=O)cc1 (centres undefined)	-1.85%
CCOc1ccc2nc(N3CCCC(C(=O)NCCc4ccc(OC)cc4OC)C3)sc2c1 (centres undefined)	-10%
O=C(Nc1ccc(F)c(Cl)c1)c1cc(S(=O)(=O)NCc2ccc3c(c2)OCO3)ccc1F	5.86%
Cc1cc2nc(-c3ccc(NC(=O)c4ccc(OCC(C)C)cc4)cc3)oc2cc1C	-13.4%
CCOCCCNC(=O)c1ccc(-c2nc(CS(=O)(=O)c3ccccc3)c(C)o2)cc1	2.51%
CNC(=O)C1CCCN(c2nnc(C)c3c(C)n(-c4ccccc4)nc23)C1 (centres undefined)	-8.98%
COc1ccc(-c2nc3sc(CCNC(=O)C(C)(C)C)c(C)n3n2)cc1	4.03%
CCOC(=O)C1CCN(c2cc3c(cc2NC(=O)c2ccccc2Cl)n(C)c(=O)n3C)CC1	16.3%
O=C(O)CCc1ccc(-c2ccc(Br)cc2)n1-c1ccccc1O	16%
Cc1ccc(C(=O)c2sc(Nc3ccc(F)cc3)c(C#N)c2N)cc1	-6.46%
Cc1cccc(CCn2c(=O)c3ccccc3n(Cc3ccccc3C)c2=O)c1	-2.17%
COc1ccc2c(c1)c1c(c(=O)n(Cc3ccccc3)c(=O)n1CC(=O)Nc1ccccc1F)n2C	3.67%
Cc1ccc(OC(=O)CSc2nnc(-c3ccc4c(c3)OCO4)o2)c(C)c1	12.2%
CCOC(=O)c1cnc(NCc2ccc(OC)cc2OC)c2ccccc12	-0.0638%
CCOc1ccccc1NC(=O)N1CC(C)Oc2ccc(Cl)cc21 (centres undefined)	-13.9%
Cc1cccn2c(=O)cc(COc3ccc(NC(=O)COc4ccc(F)cc4)cc3)nc12	-9.23%
